# Inconclusive means that the source gave no clear call. Such entries were picked first, then a sample of the others. For part of these data: No potency is given beside an inconclusive call; the fits are too rough. The source made the active and inactive calls. Unless noted, calls follow the shape of the dose curve; as a rule, active = well fitted curve in either direction with a large enough effect (not every such curve was filed as active); inconclusive = small, poorly fitted or top-dose-only effect, or another doubt; inactive = flat fitted curve, though single readings scatter.
# Key:
# [1] = NFAT Signaling Pathway (AID 444); conditions: Jurkat NFAT-bla M1, carbachol, beta-lactamase ratio, 5 h; at 7.69 µM (top of the series) unless noted;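 also: carbachol stimulus at about its EC50 of 1 µM final; % is scaled to controls: 0 for no effect and ±100 for the full control effect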
# How it was run: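 Jurkat cells carrying an NFAT-driven β-lactamase reporter and co-transfected muscarinic M1 receptor were treated with compound plus carbachol (1 uM final, an EC50 level) for 5 h at 37 °C. CCF4 loading followed for 1 h at RT; 460/530 nm ratio gave %activity.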
# [2] = target: 3',5'-cyclic-AMP phosphodiesterase 4B (Homo sapiens) (UniProt Q07343); assay: qHTS Assay for Inhibitors of PDE-IV (AID 607; active = well fitted activation curve with a large enough effect in the main read-out, with a control signal flat, not every such curve was filed as active; inconclusive = small, poorly fitted or top-dose-only effect, or effect the other way, or a change in a side signal; also: potency is read from the fitted curve at half-maximal effect; as to activation (PDE inhibition): % of control where 0% means no effect); conditions: HEK293 ACTOne CNG channel cells, membrane potential fluorescence; activation (PDE inhibition): at 22.9 µM (top of the series)
# UniProt Q07343, sequence (Q07343 whole entry, looked up): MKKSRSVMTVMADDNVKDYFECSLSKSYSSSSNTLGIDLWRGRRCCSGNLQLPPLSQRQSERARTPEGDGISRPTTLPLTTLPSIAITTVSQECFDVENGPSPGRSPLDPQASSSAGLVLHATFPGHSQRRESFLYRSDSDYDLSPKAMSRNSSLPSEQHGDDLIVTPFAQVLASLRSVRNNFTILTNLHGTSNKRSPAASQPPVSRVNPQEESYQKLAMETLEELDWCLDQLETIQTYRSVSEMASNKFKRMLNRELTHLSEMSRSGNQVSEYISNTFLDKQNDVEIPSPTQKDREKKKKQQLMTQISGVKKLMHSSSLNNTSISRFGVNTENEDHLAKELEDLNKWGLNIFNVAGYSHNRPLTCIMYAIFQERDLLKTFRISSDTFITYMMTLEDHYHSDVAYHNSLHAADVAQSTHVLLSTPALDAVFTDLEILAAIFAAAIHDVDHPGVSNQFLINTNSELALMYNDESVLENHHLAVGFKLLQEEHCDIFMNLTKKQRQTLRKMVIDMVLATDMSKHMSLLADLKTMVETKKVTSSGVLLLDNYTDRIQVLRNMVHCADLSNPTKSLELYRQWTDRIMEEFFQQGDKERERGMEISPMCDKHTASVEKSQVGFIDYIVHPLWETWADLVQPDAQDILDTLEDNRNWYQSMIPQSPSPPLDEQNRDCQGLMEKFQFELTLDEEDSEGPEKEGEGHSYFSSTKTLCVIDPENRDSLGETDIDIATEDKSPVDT
# How it was run: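 The readout is membrane depolarisation from a cAMP-sensing CNG channel, detected with a potential dye at ex 535/em 590. Cells were HEK293-derived (endogenous PDE-IV) at 1000 cells/well, titrated up to 22.9 uM final.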
# [3] = qHTS Assay for Identification of Small Molecule Agonists for Hypoxia Response Element Signaling Pathway (AID 914; active = well fitted activation curve with a large enough effect in the signal ratio, with a control signal flat, not every such curve was filed as active; inconclusive = small, poorly fitted or top-dose-only effect, or effect the other way, or a change in a side signal; the % refers to the signal ratio; also: potency is read from the fitted curve at half-maximal effect; as to activation: top concentration of the series differs between compounds; % of control where 0% means no effect); conditions: ME-180 HRE-bla reporter, beta-lactamase ratio, CoCl2, 17 h; activation: stronger effect = higher value
# How it was run: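 HRE-bla ME-180 assay for agonist-like enhancement of an EC50 CoCl2 stimulus: 17 h at 37 degrees Celsius, CCF4 for 2.5 h, ratiometric 460/530 nm signal converted to %Activity and fitted to AC50.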
# [4] = qHTS Assay for Lipid Storage Modulators (AID 1519; calls by dose curve; also: % is scaled to controls: 0 for no effect and ±100 for the full control effect); conditions: Drosophila S3 cells, BODIPY lipid droplet/cell ratio, laser cytometry, cells loaded with oleic acid; activity change, negative = inhibition: at 57.5 µM (top of the series) unless noted
# How it was run: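 Cells seeded at 5,000 per well were treated with compounds over a concentration series and loaded with oleic acid (400 uM, as added). Lipid droplet fluorescence (488 nm excitation, 500-530 nm channel) was read by laser-scanning cytometry and normalized to 20 uM Triacsin C.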
# [5] = target: Dual specificity protein kinase CLK4 (Homo sapiens) (UniProt Q9HAZ1); assay: qHTS Assay for Inhibitors of CDC-like Kinase 4 (ADP-FP Assay) (AID 1795; active = well fitted curve in the direction sought with a large enough effect; inconclusive = small, poorly fitted or top-dose-only effect, or another doubt; inactive = no such curve, though single readings can be large; an effect the other way counts as inactive or inconclusive; also: potency is read from the fitted curve at half-maximal effect; nearly all actives have a fitted effect of over 60% in size)
# UniProt Q9HAZ1, sequence (Q9HAZ1 whole entry, looked up): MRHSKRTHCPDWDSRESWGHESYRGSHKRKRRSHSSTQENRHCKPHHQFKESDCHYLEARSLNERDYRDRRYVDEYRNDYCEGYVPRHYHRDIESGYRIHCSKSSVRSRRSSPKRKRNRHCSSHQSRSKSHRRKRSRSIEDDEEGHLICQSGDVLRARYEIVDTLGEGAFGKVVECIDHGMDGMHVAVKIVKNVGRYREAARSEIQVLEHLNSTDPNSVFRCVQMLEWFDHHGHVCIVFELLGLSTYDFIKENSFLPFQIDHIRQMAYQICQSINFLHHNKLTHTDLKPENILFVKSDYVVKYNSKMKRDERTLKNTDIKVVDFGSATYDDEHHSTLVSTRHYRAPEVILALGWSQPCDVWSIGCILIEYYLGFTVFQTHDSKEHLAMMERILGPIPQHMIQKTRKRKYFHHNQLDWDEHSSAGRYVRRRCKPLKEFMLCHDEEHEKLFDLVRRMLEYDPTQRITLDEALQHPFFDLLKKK
# How it was run: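 Recombinant human Clk4 (6.25 nM) phosphorylated RS repeat peptide (100 uM) with 1 uM ATP in Tris pH 7.5/MgCl2/EGTA/DTT/Triton buffer for one hour. ADP was quantified by Transcreener competitive fluorescence polarization against an ADP calibration curve.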
# [6] = Primary qHTS for small molecule stabilizers of the endoplasmic reticulum resident proteome: Secreted ER Calcium Modulated Protein (SERCaMP) assay (AID 1508630; active = well fitted curve in the direction sought with a large enough effect; inconclusive = small, poorly fitted or top-dose-only effect, or another doubt; inactive = no such curve, though single readings can be large; an effect the other way counts as inactive or inconclusive; also: potency is read from the fitted curve at half-maximal effect); conditions: SH-SY5Y GLuc-SERCaMP (Gaussia luciferase released on ER calcium loss) secretion, thapsigargin, luminescence; activity change, negative = inhibition: at 38.4 µM (top of the series) unless noted
# How it was run: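 GLuc-SERCaMP-expressing SH-SY5Y cells, pretreated 16 h with compound, are challenged with thapsigargin to empty ER calcium stores; after 4 h, coelenterazine is added directly to the medium and luminescence is imaged.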
# [7] = AP1 Signaling Pathway (AID 357); conditions: ME-180 AP-1-bla reporter, EGF-induced, beta-lactamase ratio, 5 h; at 7.69 µM (top of the series) unless noted; also: top concentration of the series differs between compounds; % is scaled to controls: 0 for no effect and ±100 for the full control effect
# How it was run: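 ME-180 cells with beta-lactamase reporter under AP-1 response element, stimulated with EC50 EGF; compounds tested in titration series, 5 h at 37 °C. CCF4 substrate added 2.5 h at room temperature; 460/530 nm emission ratio gave %activity and AC50.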
# [8] = Stat Signaling Pathway (AID 446); conditions: ME-180 SIE beta-lactamase reporter, IL-6 stimulated, 5 h; at 7.69 µM (top of the series) unless noted;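 also: ME-180 cervical cancer cells given 40 pM IL-6 alongside compound; SIE-controlled beta-lactamase reporter measured as 460/530 nm FRET emission ratio; top concentration of the series differs between compounds; % is scaled to controls: 0 for no effect and ±100 for the full control effect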
# How it was run: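 Screening format detects activators and inhibitors alike: ME-180 SIE-bla cells stimulated at 40 pM IL-6 for 5 hrs with compound, then dual-emission beta-lactamase read at 405 nm excitation.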
# [9] = target: Mitogen-activated protein kinase 10 (Mus musculus) (UniProt Q61831); assay: JNK3 AlphaScreen Assay (AID 530); conditions: JNK3 lysate, c-Jun phosphorylation; activity change, negative = inhibition: at 57.1 µM (top of the series);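 also: kinase came from lysate of stimulated human HepG2 cells; signal reports phosphorylation of biotinylated GST-cJun 1-79 at Ser73 with 10 µM ATP; potency is read from the fitted curve at half-maximal effect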
# How it was run: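 Inhibitors reduce antibody binding to phosphorylated biotin-cJun, lowering AlphaScreen luminescence. Lysates from HepG2 cells pre-activated by IL-1beta plus TNF-alpha supplied JNK3; compounds were titrated.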
# [10] = target: Cytochrome P450 2C19 (Homo sapiens) (UniProt P33261); assay: qHTS Assay for Inhibitors and Substrates of Cytochrome P450 2C19 (AID 899; active = well fitted curve in the direction sought with a large enough effect; inconclusive = small, poorly fitted or top-dose-only effect, or another doubt; inactive = no such curve, though single readings can be large; an effect the other way counts as inactive or inconclusive; also: potency is read from the fitted curve at half-maximal effect; nearly all actives have a fitted effect of over 60% in size)
# UniProt P33261, sequence (P33261 whole entry, looked up): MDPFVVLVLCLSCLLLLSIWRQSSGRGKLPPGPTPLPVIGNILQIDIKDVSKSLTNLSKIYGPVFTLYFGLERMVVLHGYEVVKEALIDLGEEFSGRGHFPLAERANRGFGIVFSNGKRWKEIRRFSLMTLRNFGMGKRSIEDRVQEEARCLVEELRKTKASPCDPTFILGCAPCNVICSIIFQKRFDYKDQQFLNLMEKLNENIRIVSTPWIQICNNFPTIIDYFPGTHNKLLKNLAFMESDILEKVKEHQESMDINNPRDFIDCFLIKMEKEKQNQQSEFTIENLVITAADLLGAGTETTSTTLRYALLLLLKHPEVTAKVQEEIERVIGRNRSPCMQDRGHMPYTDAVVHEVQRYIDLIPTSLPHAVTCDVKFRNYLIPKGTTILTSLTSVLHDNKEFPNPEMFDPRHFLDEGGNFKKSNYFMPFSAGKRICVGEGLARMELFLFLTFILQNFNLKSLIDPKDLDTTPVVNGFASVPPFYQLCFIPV
# How it was run: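 Human CYP2C19 (5nM) with Luciferin-H EGE at 10uM (its KM) in 50mM KPO4 was preincubated with compound for 10 min at 37C. NADPH regeneration started a 60 min 37C reaction. Luciferin was read by luminescence, normalized to 57uM ketoconazole.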
# [11] = target: Cytochrome P450 1A2 (Homo sapiens) (UniProt P05177); assay: p450-cyp1a2 (AID 410; calls by dose curve; also: potency is read from the fitted curve at half-maximal effect)
# UniProt P05177, sequence (P05177 whole entry, looked up): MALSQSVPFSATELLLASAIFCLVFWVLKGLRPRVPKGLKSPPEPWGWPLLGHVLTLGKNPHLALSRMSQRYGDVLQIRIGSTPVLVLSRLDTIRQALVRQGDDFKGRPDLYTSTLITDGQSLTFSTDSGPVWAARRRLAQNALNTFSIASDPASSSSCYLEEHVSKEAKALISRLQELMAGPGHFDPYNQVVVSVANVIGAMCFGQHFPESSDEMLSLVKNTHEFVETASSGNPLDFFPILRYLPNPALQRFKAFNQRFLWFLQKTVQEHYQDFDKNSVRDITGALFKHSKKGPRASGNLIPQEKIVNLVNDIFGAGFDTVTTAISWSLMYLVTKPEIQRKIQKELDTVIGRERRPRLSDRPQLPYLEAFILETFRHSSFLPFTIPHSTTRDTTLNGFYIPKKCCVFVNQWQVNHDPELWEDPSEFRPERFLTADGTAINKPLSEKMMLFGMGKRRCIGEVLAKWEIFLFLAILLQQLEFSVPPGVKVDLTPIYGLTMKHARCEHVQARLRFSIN
# How it was run: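 20nM CYP1A2 with 100uM Luciferin-ME (at Km) in 100mM KPO4; compound preincubated 10 min, NADPH regeneration added, 60 min at room temperature. Luciferin quantified by luminescence after detection reagent; normalized to 57 uM furafylline.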
# [12] = target: Ubiquitin carboxyl-terminal hydrolase 1 (Homo sapiens) (UniProt O94782); assay: Inhibitors of USP1/UAF1: Pilot qHTS (AID 504865; active = well fitted curve in the direction sought with a large enough effect; inconclusive = small, poorly fitted or top-dose-only effect, or another doubt; inactive = no such curve, though single readings can be large; an effect the other way counts as inactive or inconclusive; also: potency is read from the fitted curve at half-maximal effect;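 also: rhodamine fluorescence freed from ubiquitin-rhodamine substrate followed over time; nearly all actives have a fitted effect of over 35% in size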)
# UniProt O94782, sequence (O94782 whole entry, looked up): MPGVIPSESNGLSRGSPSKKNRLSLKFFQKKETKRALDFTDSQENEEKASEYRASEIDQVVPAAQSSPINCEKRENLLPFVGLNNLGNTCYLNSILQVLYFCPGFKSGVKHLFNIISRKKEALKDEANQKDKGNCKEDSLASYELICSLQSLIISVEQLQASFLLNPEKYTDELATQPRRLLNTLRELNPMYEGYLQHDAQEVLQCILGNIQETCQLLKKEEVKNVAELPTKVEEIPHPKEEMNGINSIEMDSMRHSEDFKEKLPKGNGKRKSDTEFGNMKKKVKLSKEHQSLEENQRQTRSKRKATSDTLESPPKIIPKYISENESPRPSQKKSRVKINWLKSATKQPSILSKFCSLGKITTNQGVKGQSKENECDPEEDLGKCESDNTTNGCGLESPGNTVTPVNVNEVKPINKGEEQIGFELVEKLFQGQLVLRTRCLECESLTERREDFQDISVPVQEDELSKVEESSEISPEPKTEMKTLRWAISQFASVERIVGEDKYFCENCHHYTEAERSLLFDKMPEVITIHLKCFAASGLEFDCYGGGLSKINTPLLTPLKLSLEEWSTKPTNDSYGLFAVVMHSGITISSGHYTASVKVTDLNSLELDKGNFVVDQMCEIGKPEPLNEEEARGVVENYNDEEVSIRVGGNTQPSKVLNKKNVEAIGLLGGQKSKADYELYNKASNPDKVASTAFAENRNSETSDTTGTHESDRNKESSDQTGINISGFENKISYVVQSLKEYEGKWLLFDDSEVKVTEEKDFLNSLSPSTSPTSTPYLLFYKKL
# How it was run: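 USP1/UAF1 complex (1nM) preincubated with compound 15 min at room temperature, then Ub-Rho substrate (150nM final) added. Fluorescence read kinetically at 480/540 nm, 6 reads every 60 seconds. Buffer: 50mM HEPES pH 7.8, 0.5mM EDTA, 0.1 mg/ml BSA, 1mM TCEP, 0.01% Tween-20.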
# [13] = target: Cytochrome P450 3A4 (Homo sapiens) (UniProt P08684); assay: qHTS Assay for Inhibitors and Substrates of Cytochrome P450 3A4 (AID 884; active = well fitted curve in the direction sought with a large enough effect; inconclusive = small, poorly fitted or top-dose-only effect, or another doubt; inactive = no such curve, though single readings can be large; an effect the other way counts as inactive or inconclusive; also: potency is read from the fitted curve at half-maximal effect; nearly all actives have a fitted effect of over 50% in size); conditions: recombinant CYP3A4, Luciferin-PPXE luminescence; activity change, negative = inhibition: at 57.1 µM (top of the series)
# UniProt P08684, sequence (P08684 whole entry, looked up): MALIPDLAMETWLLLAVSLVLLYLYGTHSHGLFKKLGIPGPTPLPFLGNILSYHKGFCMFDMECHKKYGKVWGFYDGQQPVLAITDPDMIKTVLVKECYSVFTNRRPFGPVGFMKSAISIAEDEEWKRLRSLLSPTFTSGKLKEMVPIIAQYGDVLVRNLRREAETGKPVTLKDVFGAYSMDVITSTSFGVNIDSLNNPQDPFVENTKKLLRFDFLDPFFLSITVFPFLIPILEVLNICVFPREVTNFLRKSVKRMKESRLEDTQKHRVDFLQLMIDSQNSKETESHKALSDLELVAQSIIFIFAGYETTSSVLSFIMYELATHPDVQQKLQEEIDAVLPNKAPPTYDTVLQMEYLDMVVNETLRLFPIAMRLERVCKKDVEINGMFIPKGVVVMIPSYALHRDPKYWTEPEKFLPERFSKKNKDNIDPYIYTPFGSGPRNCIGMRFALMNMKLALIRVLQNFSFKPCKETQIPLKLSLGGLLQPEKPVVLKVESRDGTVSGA
# How it was run: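 20 nM human CYP3A4 with 25 uM Luciferin-PPXE (at KM) in 200 mM KPO4, preincubated 10 min with compound; NADPH regeneration started a 60 min RT reaction. Luciferin detected by luminescence, normalized to 57 uM ketoconazole as full inhibition.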
# Tags tell the direction and shape of the fitted curve or compound fluorescence and quenching.
structure (smiles),measurement,setting,value
COc1cccc(-c2ccc3ncnc(NCCN4CCOCC4)c3c2)c1,"activity change, negative = inhibition",[1],inconclusive: 33.7% [activator]
same,Potency,[2],"inconclusive [activator, partial curve, poor fit]"
same,activation,[3],inactive: -14.8%
same,Potency,[4],inactive
same,Potency,[5],active: 0.631 µM
same,Potency,[6],"inconclusive [inhibitor, single point]"
CN(C)c1ncc2nc(-c3ccccc3)c(=O)n(C)c2n1,"activity change, negative = inhibition",[7],inconclusive: 58.7% [activator]
same,"activity change, negative = inhibition",[1],inconclusive: 83.6% [activator]
same,"activity, negative = inhibition",[8],inconclusive: 125% [activator]
same,Potency,[9],"inconclusive [activator, partial curve]"
same,Potency,[2],"inconclusive [activator, partial curve]"
same,Potency,[3],active: 2.51 µM
same,"activity change, negative = inhibition",[4],inconclusive: 5.19%
same,Potency,[6],"inconclusive [inhibitor, single point]"
COc1ccc2[nH]cc(CCNc3ncncc3-c3ccoc3)c2c1,"activity change, negative = inhibition",[7],inconclusive: -30.4% [inhibitor]
same,"activity, negative = inhibition",[8],inactive: -23.4%
same,Potency,[3],"inconclusive [inhibitor, partial curve]"
same,"activity change, negative = inhibition",[4],inconclusive: -23.7%
same,Potency,[6],"inconclusive [inhibitor, single point]"
COc1cccc(Nc2ncc3nc(C)c(=O)n(-c4ccccc4)c3n2)c1,"activity change, negative = inhibition",[7],inconclusive: -37% [inhibitor]
same,Potency,[2],inactive
same,Potency,[4],inactive
same,Potency,[6],"inconclusive [inhibitor, single point]"
Cc1noc(C)c1C(=O)N1CCC[C@@]2(CCN(c3cccc(-c4ccccc4)c3)C2)C1,"activity change, negative = inhibition",[7],inconclusive: -34.1% [inhibitor]
same,Potency,[3],"inconclusive [inhibitor, single point]"
same,"activity change, negative = inhibition",[4],inconclusive: -52.7%
same,Potency,[6],"inconclusive [inhibitor, single point]"
COc1ccc(Oc2ncc3nc(-c4ccccc4)c(=O)n(C[C@H]4CCCO4)c3n2)cc1,"activity change, negative = inhibition",[7],inconclusive: -42.8% [inhibitor]
same,"activity change, negative = inhibition",[1],inactive: -3.65%
same,activation,[3],inconclusive: -24.2%
same,"activity change, negative = inhibition",[4],inconclusive: -29.7%
same,Potency,[6],"inconclusive [inhibitor, single point]"
Cn1c(=O)cnc2cnc(Nc3ccccc3)nc21,"activity change, negative = inhibition",[7],inconclusive: -39.2% [inhibitor]
same,Potency,[9],"inconclusive [inhibitor, partial curve]"
same,Potency,[2],"inconclusive [activator, partial curve]"
same,Potency,[10],"inconclusive [inhibitor, full curve]"
same,"activity change, negative = inhibition",[4],inconclusive: -26.5%
same,Potency,[6],inactive
Cc1cnc(CNc2ccnc(-c3ccc(N(C)C)cc3)n2)cn1,Potency,[11],active: 2.51 µM
same,"activity, negative = inhibition",[8],inconclusive: 132% [activator]
same,Potency,[4],inactive
same,Potency,[12],"inconclusive [inhibitor, partial curve, poor fit]"
same,Potency,[6],"inconclusive [inhibitor, single point]"
COc1cccc(Cn2c(=O)cnc3cnc(Nc4cccc(OC)c4)nc32)c1,"activity change, negative = inhibition",[7],inconclusive: -51.2% [inhibitor]
same,"activity change, negative = inhibition",[1],inactive: 15.4%
same,activation,[3],inconclusive: -24.2%
same,"activity change, negative = inhibition",[4],inconclusive: 2.04%
same,Potency,[12],inactive
same,Potency,[6],"inconclusive [inhibitor, single point]"
O=c1c(CCc2ccccc2)nc2cncnc2n1Cc1ccccc1,"activity change, negative = inhibition",[7],inconclusive: -15.9% [inhibitor]
same,Potency,[2],"inconclusive [activator, partial curve]"
same,"activity change, negative = inhibition",[4],inconclusive: 8.21%
same,Potency,[12],inactive
same,Potency,[6],"inconclusive [inhibitor, partial curve, poor fit]"
COc1ncc2nc(-c3ccc(F)cc3)c(=O)n(Cc3ccc(F)cc3)c2n1,Potency,[11],active: 1.58 µM
same,"activity change, negative = inhibition",[4],inconclusive: 4.11%
same,Potency,[6],inactive
Cn1cc(-c2nc3cnc(N4CCNCC4)nc3n(C3CC3)c2=O)c2ccccc21,"activity change, negative = inhibition",[7],inconclusive: 34.2% [activator]
same,"activity, negative = inhibition",[8],inconclusive: 68.3% [activator]
same,Potency,[9],"inconclusive [activator, partial curve]"
same,Potency,[13],"inconclusive [inhibitor, partial curve]"
same,Potency,[3],"inconclusive [fluorescent, partial curve]"
same,"activity change, negative = inhibition",[4],inconclusive: -13.1%
same,Potency,[6],"inconclusive [inhibitor, partial curve, poor fit]"
CN(Cc1ccco1)c1nc(-c2cccnc2)nc2ccccc12,"activity change, negative = inhibition",[7],inconclusive: -33.2% [inhibitor]
same,"activity change, negative = inhibition",[1],inactive: -25.8%
same,Potency,[2],"inconclusive [activator, partial curve]"
same,"activity change, negative = inhibition",[4],inconclusive: 6.73%
same,Potency,[6],"inconclusive [inhibitor, single point]"

# — PubChem BioAssay (NCATS)
